The other results are listed elsewhere or left out. Sequences were assembled here from the parent chain. Values near 0.05 are background.
B1: TEV protease; numbered along this chain (parent)
chain: MGESLFKGPRDYNPISSSICHLTNESDGHTTSLYGIGFGPFIITNKHLFRRNNGTLVVQSLHGVFKVKDTTTLQQHLVDGRDMIIIRMPKDFPPFPQKLKFREPQREERICLVTTNFQTKSMSSMVSDTSCTFPSGDGIFWKHWIQTKDGQCGSPLVSTRDGFIVGIHSASNFTNTNNYFTSVPKNFMELLTNQEAQQWVSGWRLNADSVLWGGHKVFMVKPEEPFQPVKEATQL

Variants of: B1
Test: raw area under fraction-flipped curve 0-4 h after induction (AUC4h, not background-subtracted), DNA-recorder readout of cleavage of the substrate (dimensionless); higher = more cleavage of the substrate by the protease variant
Settings: temperature: 34 °C; time window: 0-4 h after rhamnose induction
Method: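 In vivo DNA recorder in E. coli TOP10(DE3) ΔrhaA at 34 °C. Each TEVp single-site mutant (parent TEVp 0) is paired with a single-site variant of the 7-mer TEVs (canonical ENLYFQ|S). The substrate sits between flexible linkers in a Bxb1-sfGFP-TEVs-SsrA fusion, so cleavage stabilises Bxb1 and speeds flipping of a recombination array, read by NGS. The value is the raw area under the fraction-flipped curve over 0-4 h after rhamnose induction (AUC4h), with ≥20 reads per time point. It is not background-subtracted; inactive controls average about 0.047.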
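Further: Bxb1 expression induced with 0.2% (w/v) L-rhamnose at OD600 near 0.5, cultures sampled hourly, flipped fraction per protease–substrate barcode pair counted by paired-end Illumina sequencing.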

Variant	area with substrate DNLYFQS	area with substrate GNLYFQS	area with substrate INLYFQS	area with substrate MNLYFQS	area with substrate NNLYFQS	area with substrate PNLYFQS	area with substrate TNLYFQS	area with substrate YNLYFQS	area with substrate FNLYFQS	area with substrate HNLYFQS	area with substrate VNLYFQS	area with substrate WNLYFQS	area with substrate KNLYFQS	area with substrate LNLYFQS	area with substrate RNLYFQS	area with substrate SNLYFQS	area with substrate QNLYFQS
T71S	0.0678	0.0687	0.066	0.0608	0.0666	0.0653	0.0671	0.0622	–	–	–	–	–	–	–	–	–
K68S	0.0872	0.0578	0.0677	0.0605	0.0774	–	–	0.0506	0.0566	0.0607	0.0616	0.0598	–	–	–	–	–
V58I	0.0726	0.0615	–	–	0.126	0.0684	–	–	0.0802	0.0656	–	0.074	0.0805	–	–	–	–
V58A	0.0846	–	–	–	0.0477	–	–	0.0576	–	–	–	–	0.0727	0.0728	0.0703	0.0578	–
Q59E	0.0542	–	0.0476	–	0.0772	0.07	0.0635	0.0637	–	0.0796	0.0578	0.0691	0.0681	–	–	0.0535	–
Q59S	0.0689	0.0708	–	–	–	0.0207	0.0499	–	–	–	–	0.0642	–	0.0748	–	–	–
R51E	0.0822	0.0837	0.0693	0.0742	0.0561	–	0.0664	–	0.0581	0.0635	–	0.0613	–	0.0575	–	–	–
R51V	0.0696	0.0717	0.0564	–	–	0.0645	0.0639	0.0588	0.0741	0.0639	0.0695	0.0513	–	0.068	–	0.0686	–
R51Q	0.0932	0.121	0.11	0.062	0.0702	0.0682	0.075	0.0651	0.0514	0.0673	–	0.0629	0.069	–	–	–	–
R51D	0.0675	–	–	0.0714	–	0.0607	–	0.0558	–	–	0.0595	0.0687	–	–	–	–	–
R51T	0.0941	–	–	0.0871	0.0821	0.0922	0.0651	–	–	0.0663	–	0.0496	–	0.054	0.0566	–	–
F49N	0.0556	0.0663	0.0349	–	0.0627	0.0581	0.0531	0.0614	–	–	0.0338	0.0524	–	0.0607	–	0.0482	–
G63P	0.0649	0.0573	–	–	–	0.0501	0.045	0.0537	–	0.0598	–	0.0471	0.0537	0.0457	0.054	–	0.0452
G63E	0.0636	0.0549	0.0598	–	–	0.0614	–	0.055	0.0689	0.0544	–	0.0921	–	0.0507	–	0.0613	–
Q74N	0.0877	0.0893	0.0379	–	–	0.0488	0.119	–	–	–	–	0.0522	0.0517	–	–	0.0727	–
Q74L	0.0497	–	–	–	–	0.0577	–	–	–	0.0651	–	0.065	–	–	–	0.0554	–
Q74T	0.0753	0.059	–	–	0.051	–	0.0454	–	0.0628	0.0566	0.0684	0.0655	0.0412	0.0532	0.0352	–	–
G54P	0.0535	0.0645	0.0577	–	0.0517	0.0484	–	–	0.071	0.0583	–	0.045	0.106	–	–	–	–
